Structures are written as SMILES.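 Briefly, cells in 96-well plates were exposed to five compound concentrations for 48 h, and endpoints were estimated by linear interpolation. GI50 is the concentration that inhibits growth by half. TGI: concentration producing complete growth inhibition.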 Where only a bound is given, the exact number is not on record here.

For this test, the system named is NCI-H322M lung. Put plainly: growth of human tumour cells (NCI), 48 h.

Take `COc1ccc2c(O)c(S(=O)(=O)c3ccc(C)cc3)c(=O)oc2c1OC`: the TGI was above 100 µM.

With `CC1CN=C(Nc2cccc(F)c2)S1` (stereo not given), the TGI was above 100 µM.

On to `COc1cc(C2c3cc4c(cc3OC(NNS(=O)(=O)c3ccc(C)cc3)C2C)OCO4)cc(OC)c1OC` (stereo not given), for which the TGI worked out at 39.8 µM.

The molecule `COc1ccc(O)c(C(=O)CCC(=O)O)c1` came in with a TGI above 100 µM.

The molecule `c1cc2c3c(c1)c1cc4c(cc1c[n+]3CC2)OCO4` had a TGI of 39.9 µM.

With `Cn1c(=Nc2ccc(Cl)cc2)sc2ccccc21`, the TGI is above 100 µM.

The molecule `Cc1ccc(S(=O)C[C@](NC(=O)OCc2ccccc2)(Sc2ccccc2)C(F)F)cc1` (stereo not given in full) gave a TGI of 33 µM.

Take `CCCCCCCCCc1ccc(OCCOCCOCCOCCOCCOCCOCCOCCOCCO)cc1`: the GI50 is 2.08 µM and the TGI is 7.67 µM.

For `CC(NC(=O)Cc1ccc(C(F)(F)P(=O)(OCc2ccc([N+](=O)[O-])o2)N(C)CCCCCl)cc1)c1ccc(OCC2CCCCC2)c(C(N)=O)c1` (stereo not given), the GI50 is 10.8 µM and the TGI was 26.7 µM.

With `CCCCCCC(O)CC[C@H]1CCC[C@@H](C)N1` (stereo not given in full), the TGI was above 31.6 µM.

Molecule `CCOC(=O)C1Cc2ccc3c4c(ccc(c24)C1)CC(C(=O)OCC)C3` gave a TGI above 100 µM.

As to `COC1(C2c3ccccc3CCN2C(=O)OC(C)(C)C)C(=O)C(c2ccccc2)=C1N(C)C` (stereo not given), the TGI is above 100 µM.

As for `C=C1C[C@@H](O)[C@@H](Br)C(C)(C)[C@@]12C=CC(=O)CC2`, the TGI was above 100 µM.

As for `O=C(c1cccs1)c1nccc2c1cnc1ccccc12`, the TGI was above 100 µM.

Consider `Cc1ccc(S(=O)(=O)c2nc(-c3ccccc3)oc2S(C)(=O)=O)cc1`, for which the GI50 was 16.9 µM and the TGI is 30.5 µM.

`COC/N=C(\NC#N)NCOC`: the TGI was above 100 µM.

Turning to `Cc1cc(NCc2cc(Nc3ccnc4cc(Cl)ccc34)ccc2F)nc(N2CCOCC2)n1`, the GI50 was 1.85 µM and the TGI was 5.63 µM.

As to `CO/N=C\c1ccc2c(c1)Sc1ccccc1O2`, the TGI is above 100 µM.

Consider `N=c1c2ccccc2sc2nc3ccccc3n12`, for which the TGI is above 100 µM.

As for `COc1cccc(CNc2ncnc3c2ncn3C2OC(CO)C(O)C2O)c1O` (stereo not given), the GI50 is 0.136 µM.

Regarding `CC12CCCCC1=C(F)C(F)(F)S2` (stereo not given), the TGI was above 100 µM.

As to `CC(C)=NOC(=O)CNC(=O)C(Cc1ccccc1)NC(=O)C(C)NC(=O)OC(C)(C)C` (stereo not given), the TGI was above 100 µM.

In turn, `N#Cc1c(=O)c2ccccc2n2ccccc12` registered a TGI above 100 µM.

Consider `C=C1C(=O)O[C@H]2[C@H]1CC/C(COC(=O)N[C@H]1C[C@H](O[C@H]3C[C@](O)(C(=O)CO)Cc4c(O)c5c(c(O)c43)C(=O)c3c(OC)cccc3C5=O)O[C@@H](C)[C@H]1O)=C\CC[C@@]1(C)O[C@@H]21`, for which the GI50 was above 50 µM and the TGI was above 50 µM.

As to `CN(Cc1ccc(F)cc1)c1ccc(CO)c(Cl)c1`, the GI50 was 13.8 µM and the TGI is above 66.5 µM.

In turn, `COc1ccc2c(c1)CN([C@@H](C)[C@H]1CC[C@H]3[C@@H]4CC[C@H]5C[C@@H](O)CC[C@]5(C)[C@H]4CC[C@]13C)CO2` came in with a TGI of 10.8 µM.

Turning to `Clc1ccccc1CN1COc2c(ccc3cccnc23)C1`, the TGI turned out to be 14.9 µM.

Consider `CCCC1(CN2c3ccccc3Sc3ccc(Cl)cc32)CCN(CC)C1` (stereo not given), for which the GI50 was 1.88 µM and the TGI came out at 3.48 µM.

For the molecule `COC(=O)C(=O)C(CC(=O)Nc1ccc(C)cc1)C(=O)OC` (stereo not given), the TGI was above 100 µM.

As for `c1ccc(-c2nc3n(c2-c2ccc4c(c2)OCO4)CCC3)nc1`, the GI50 is 4.69 µM and the TGI was above 23.6 µM.

As for `CN(C)C(=S)/N=c1\ssc(=S)n1C`, the TGI is above 100 µM.

`O=c1c2c(-c3ccccc3)c3ccccc3nc2cnn1-c1ccccc1` had a TGI above 100 µM.

`FC(F)(F)c1ccc2c(c1)nc1n2C(c2c(Cl)cccc2Cl)SC1` (stereo not given) displayed a TGI of 38.6 µM.

The molecule `Cc1ccc(O)c(C2=CC3=NNC(=O)C3C(c3cccc(Cl)c3)C2)c1` (stereo not given) yielded a TGI of 57.1 µM.

Regarding `COc1cc(/C=C2\C[C@H]3[C@@H]4CCC5=CC(=O)CC[C@]5(C)[C@H]4CC[C@]3(C)C2=O)cc(OC)c1OC`, the TGI was above 100 µM.

As to `O=C(c1ccc2ccccc2c1)c1nc2cc(F)ccc2[n+]([O-])c1C(F)(F)F`, the GI50 is 17.1 µM and the TGI was 34.4 µM.

Take `CC(=O)OC(C(=O)[O][Sn]([CH3])([CH3])[CH3])c1ccccc1` (stereo not given): the GI50 is above 100 µM and the TGI was above 100 µM.

As for `O=C1C[C@@]23CCC4(CC2CCC[C@H]3O1)OCCO4` (stereo not given in full), the TGI was above 100 µM.

In turn, `CCCCCCCCC/C=C1/CC(CO)(COC(=O)CC(C(C)C)C(C)C)OC1=O` (stereo not given) had a TGI of 25.3 µM.

Regarding `CN(C)CCCOc1cccc(NC2=C(Cl)C(=O)C(Nc3cccc(OCCCN(C)C)c3)=C(Cl)C2=O)c1`, the GI50 was 2.78 µM and the TGI is 9.48 µM.

With `C=C1C(=O)O[C@H]2[C@H]1CC/C(COC(=O)NCc1ccc(Cn3c(=O)sn(CCCCC)c3=O)cc1)=C\CC[C@@]1(C)O[C@@H]21`, the GI50 was 10.7 µM and the TGI turned out to be 22.5 µM.

`C=C1C(=O)C23[C@H](O)C1CC[C@H]2[C@]12COC3(O)[C@@H](O)[C@@H]1C(C)(C)CC[C@@H]2O` yielded a TGI of 29.4 µM.

For the molecule `CC(C)(C)NCC(O)COc1c(Br)c(Br)c(Br)c2c1OC(C)(C)C2` (stereo not given), the GI50 was 1.79 µM and the TGI was 3.19 µM.

Consider `COc1cc(C2=NN(C(C)=O)C(c3cc(OC)c(OC)c(OC)c3)C2)ccc1O` (stereo not given), for which the GI50 is 0.763 µM and the TGI is above 100 µM.

Consider `FC(F)(F)c1ccc(-c2nn3ncccc3c2-c2ccnc(Nc3ccc4c(c3)OCCO4)n2)cc1`, for which the GI50 was above 25 µM and the TGI was above 25 µM.

`O=C(O)c1nc2ccc(C(F)(F)F)cc2nc1Nc1ccc(Cl)c(Cl)c1` displayed a TGI of 37.7 µM.

Molecule `CCOc1cccc2c1N[S@@](=O)S2` gave a TGI above 100 µM.

For the molecule `NC(=O)CSc1c2cc(O)ccc2nc2ccc(O)cc12`, the TGI is above 10 µM.

Regarding `C1=Cc2nc1c(-c1ccccc1)c1ccc([nH]1)c(-c1ccccc1)c1nc(c(-c3ccccc3)c3ccc([nH]3)c2-c2ccccc2)C=C1`, the TGI was above 100 µM.

`O=[N+]([O-])c1cc([As](Br)c2ccc(O)c([N+](=O)[O-])c2)ccc1O` gave a TGI of 3.36 µM.

Regarding `C[N+](C)(C)CC1CCCCC1=O` (stereo not given), the TGI is above 100 µM.

For `COc1cccc(-c2cc(=O)c3cc4c(cc3[nH]2)OCO4)c1`, the TGI is above 100 µM.

In the case of `CSc1ncnc2c1ncn2CC(=O)C1CCC2C3CCC4=CC(=O)CCC4(C)C3CCC12C` (stereo not given), the TGI was above 100 µM.

The molecule `Clc1ccc2c(NCCCCN3OC3c3ccccc3)ccnc2c1` (stereo not given) showed a TGI of 22.1 µM.

On to `COc1cc(OC)c2sc(-c3ccc(-n4cncc4-c4ccc(OC)c(OC)c4)cc3)nc2c1`, for which the GI50 was above 100 µM and the TGI is above 100 µM.

`CC(C)(C)C(=O)Oc1ccc(/C=C/C(=O)c2ccc(OC(=O)C(C)(C)C)cc2)cc1` had a TGI above 100 µM.

For `Cc1ccc2nc3n[nH]c(N)c3nc2c1`, the TGI was above 100 µM.

Regarding `CCOC(=O)c1ccc(NC(=O)NC2=NCCS2)cc1`, the GI50 is 7.01 µM and the TGI is above 100 µM.

In the case of `CC(C)(C)OC(=O)N1NC(c2ccccc2)CC1c1ccccc1` (stereo not given), the TGI was above 100 µM.

In turn, `N#Cc1c(Cl)c2cccnc2n2c1nc1ccccc12` registered a TGI of 25 µM.

Turning to `O=C1CCCC/C1=C\c1ccc([N+](=O)[O-])cc1`, the TGI was above 100 µM.

`Cc1ccc(-c2c(-c3ccccc3)[nH]c(C)c2C(=O)ONC(=O)c2ccccc2)cc1` showed a TGI of 23.5 µM.

`C/C(=N\NC(=S)N1CCC(N2CCCCC2)CC1)c1ccccn1` registered a TGI of 8.13 µM.

On to `COc1ccc(-c2nc(-c3nc4cc(Cl)c(F)cc4[nH]3)c3ccccn23)cc1`, for which the GI50 is 6.87 µM and the TGI was above 100 µM.

With `CC1(C)COC2C(N(Cc3ccccc3)Cc3ccccc3)C(=O)N21` (stereo not given), the TGI was above 100 µM.

Turning to `CCn1cc(/C=C2\Oc3cc(OCC#N)ccc3C2=O)c2cc(OC)ccc21`, the GI50 was 1.1 µM and the TGI is above 100 µM.

Turning to `Cc1cc(N/N=C/c2nc(-c3ccc(Cl)cc3)oc2C)c2cc(Br)ccc2n1`, the GI50 was 2.59 µM and the TGI was 9.14 µM.

In turn, `CC1=Nc2ccccc2SC(c2c(Cl)cccc2Cl)C1` (stereo not given) came in with a TGI of 4.37 µM.

Molecule `COc1cc(C(=O)N[C@H]2CCc3cc(OC)c(OC)c(OC)c3-c3ccc(SC)c(=O)cc32)cc(OC)c1OC` registered a TGI above 100 µM.

As for `Oc1ccc(/C=C/c2cccc(/C=C/c3ccc(O)c(O)c3)n2)cc1O`, the TGI is 29.6 µM.

In turn, `CCCC(=O)N[C@H]1CCc2cc(OC)c(OC)c(OC)c2-c2ccc(SC)c(=O)cc21` returned a TGI of 3.71 µM.

For the molecule `OC1=CN=COc2ccccc21`, the TGI is above 100 µM.

With `O=[N+]([O-])C(/C(Cl)=C(\Cl)Br)=C(/Cl)SCc1ccccc1`, the TGI was found to be 30.5 µM.

Regarding `CCC(=O)N/S(=N/S(=O)(=O)c1ccccc1)C(Cl)(Cl)Cl` (stereo not given), the TGI is above 100 µM.

`Cc1ccc(/C=C2\NC(=S)NC2=O)cc1` had a TGI above 100 µM.

In turn, `CC[C@@H](CCCCC1CC[C@H]2CC(=O)C[C@@H]12)OC` (stereo not given in full) gave a TGI above 100 µM.

For `COc1ccc2cc(CNCCCCCCCCNCc3ccc4cc(OC)ccc4c3)ccc2c1`, the TGI turned out to be 44.5 µM.

Consider `Nc1nc(N)c2cc(Sc3ccc4ccccc4c3)ccc2n1`, for which the TGI stood at 5.36 µM.

`O=C1c2ccccc2C(=O)C12CCc1ccccc12` yielded a TGI above 100 µM.

`O=C(N/N=C\c1cccc2ccccc12)Nc1ccccc1`: the TGI was above 100 µM.

Regarding `C=C1C(=O)O[C@H]2[C@H]1CC/C(Cn1cc(-c3ccc(N)cc3)nn1)=C\CC[C@@]1(C)O[C@@H]21`, the GI50 is 12.6 µM and the TGI was 25.7 µM.

In turn, `CCCc1nc(Cl)nc(Cl)c1Cl` yielded a TGI of 2.97 µM.

Consider `CCOC(=O)/C=C/c1c(C)[nH]c(=O)[nH]c1=O`, for which the TGI was above 250 µM.

Molecule `CCOP(=O)(OCC)/C(C#N)=C/c1ccccn1` returned a TGI above 100 µM.

As to `O=C(Nc1cccc2[nH]c(C(F)(F)F)nc12)c1cc(Cl)ccc1Cl`, the GI50 is 3.59 µM and the TGI is above 100 µM.

In turn, `C[C@H]1C2Cc3cc(O)ccc3[C@@]1(C)CCN2CCc1ccc(N)cc1` gave a TGI above 100 µM.

For `O=c1[nH]nc(-c2ccccc2)n1/N=C/c1cccc([N+](=O)[O-])c1`, the TGI is above 100 µM.

Consider `O=C1CCC[C@H]2O[C@@H](COC(=O)c3ccccc3)C[C@H]2O1`, for which the TGI was above 100 µM.
